Consider 87 molecules from publication PMC4336329 (PLoS ONE, 2015).

Among all 310,000 compounds or so, about 14,000 (4.5%) showed an effect of 50% or more. Effects have a minus sign here. Some of the results follow.
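Note: peak tail current of the secondary pulse compared with the same well before compound.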

The target in the test is human ether-à-go-go-related gene (hERG) potassium channel (human, UniProt Q12809). The test is described as follows: primary screen, population patch clamp on CHO cells stably expressing hERG.
human ether-à-go-go-related gene (hERG) potassium channel, sequence (Q12809 whole entry, looked up): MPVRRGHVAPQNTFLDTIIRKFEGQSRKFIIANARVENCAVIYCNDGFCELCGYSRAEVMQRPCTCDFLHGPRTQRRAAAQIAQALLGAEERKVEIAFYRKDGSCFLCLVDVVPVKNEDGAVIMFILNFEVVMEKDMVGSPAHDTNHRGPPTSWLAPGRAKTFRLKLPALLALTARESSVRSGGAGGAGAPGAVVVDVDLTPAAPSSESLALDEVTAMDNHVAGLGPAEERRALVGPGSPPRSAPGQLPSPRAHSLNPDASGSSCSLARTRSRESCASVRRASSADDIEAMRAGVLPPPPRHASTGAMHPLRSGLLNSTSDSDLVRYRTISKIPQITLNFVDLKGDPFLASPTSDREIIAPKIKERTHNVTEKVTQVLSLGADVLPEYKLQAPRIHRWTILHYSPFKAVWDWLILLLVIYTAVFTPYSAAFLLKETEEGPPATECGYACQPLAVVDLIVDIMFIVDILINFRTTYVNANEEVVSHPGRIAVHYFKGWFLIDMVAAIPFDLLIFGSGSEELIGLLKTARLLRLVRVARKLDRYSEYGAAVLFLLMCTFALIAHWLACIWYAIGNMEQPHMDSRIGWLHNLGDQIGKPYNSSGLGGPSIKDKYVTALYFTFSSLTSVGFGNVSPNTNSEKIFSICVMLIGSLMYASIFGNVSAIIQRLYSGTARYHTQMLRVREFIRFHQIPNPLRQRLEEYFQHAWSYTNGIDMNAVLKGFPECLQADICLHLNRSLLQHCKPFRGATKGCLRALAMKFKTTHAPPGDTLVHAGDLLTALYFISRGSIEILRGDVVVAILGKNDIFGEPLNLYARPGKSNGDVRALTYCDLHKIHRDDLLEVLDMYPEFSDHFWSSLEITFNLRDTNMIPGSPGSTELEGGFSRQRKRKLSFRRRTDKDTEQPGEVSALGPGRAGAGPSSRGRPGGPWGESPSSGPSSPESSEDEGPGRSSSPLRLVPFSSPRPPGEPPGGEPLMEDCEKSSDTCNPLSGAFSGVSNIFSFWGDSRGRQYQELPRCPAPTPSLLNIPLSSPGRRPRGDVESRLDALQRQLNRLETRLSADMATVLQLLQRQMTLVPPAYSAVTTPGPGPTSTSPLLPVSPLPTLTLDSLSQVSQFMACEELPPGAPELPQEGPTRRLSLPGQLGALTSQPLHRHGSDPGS
Regarding `O=C(NCCNc1ccc([N+](=O)[O-])cc1C(F)(F)F)c1cccc(F)c1`, the “hERG current change (%, negative = inhibition) at 10uM” value was -20.1%.

As to `Cc1cc(C)n2nc(C(=O)OCC(=O)Nc3ccc4c(c3)OCO4)nc2n1`, the “hERG current change (%, negative = inhibition) at 10uM” value is reported as -1.59%. Consider `CCCCCCCC1CC(CSc2ncn[nH]2)OC1=O` (stereo not drawn), for which the “hERG current change (%, negative = inhibition) at 10uM” value was -7.72%. As for `CCCCn1c(SCC(=O)c2ccccc2)nc2ccsc2c1=O`, the “hERG current change (%, negative = inhibition) at 10uM” value stood at 1.38%. For the molecule `CCOc1ccc(NC(C)=O)cc1`, the “hERG current change (%, negative = inhibition) at 10uM” value stood at 0.631%. Next, `CC(NCC(O)COCCC12CC3CC(CC(C3)C1)C2)c1ccccc1.Cl` (stereo not drawn): -53.8%; `CN(Cc1cnccn1)Cc1cn(Cc2ccccc2)nc1-c1ccc2c(c1)OCO2`: -23%; `COc1cccc(NC(=O)Cn2c(CCC(=O)O)ccc2-c2ccc(Cl)cc2)c1`: 15.7%. Regarding `O=C(Cc1ccc([N+](=O)[O-])cc1)N1CCN(Cc2ccc3c(c2)OCO3)CC1`, the “hERG current change (%, negative = inhibition) at 10uM” value is reported as -45.5%.

As for `CCN(C(=O)COC(=O)CC(C)c1ccccc1)c1c(N)n(Cc2ccccc2)c(=O)[nH]c1=O` (stereo not drawn), the “hERG current change (%, negative = inhibition) at 10uM” value is listed as 21.5%.

As to `O=[N+]([O-])c1ccc(S(=O)(=O)Nc2nc(-c3ccccc3)cs2)cc1`, the “hERG current change (%, negative = inhibition) at 10uM” value was -1.39%.

For the molecule `O=C(Cn1nc(-c2ccccc2)ccc1=O)NCc1ccc2c(c1)OCO2`, the “hERG current change (%, negative = inhibition) at 10uM” value is given as -9.07%. As to `COc1ccccc1NS(=O)(=O)c1cccc(C(=O)N/N=C/c2ccccc2OCC(=O)O)c1`, the “hERG current change (%, negative = inhibition) at 10uM” value is on record as 12.8%. `Cc1ccc2sc(NNC(=O)c3cc(=O)c4ccccc4o3)nc2c1C`: the “hERG current change (%, negative = inhibition) at 10uM” value amounted to 15.2%. In the case of `Cc1ccc2c(c1)C(c1ccccc1)N(C(=O)c1cccc([N+](=O)[O-])c1)CC(=O)N2` (stereo not drawn), the “hERG current change (%, negative = inhibition) at 10uM” value is reported as -55.6%. In the case of `O=C1c2cccc3cccc(c23)C(=O)N1Cc1ccccc1` it was 19.4%; in that of `CC1CCN(C(=O)C(C)Cl)CC1` (stereo not drawn), 50.6%; in that of `O=C(N1CCOCC1)N1c2ccccc2CC(N2CCOCC2)c2ccccc21` (stereo not drawn), 19.9%.

For `CCN(CC)CCNC(=O)c1ccc(NC(=O)Cc2ccsc2)cc1`, the “hERG current change (%, negative = inhibition) at 10uM” value is 15.6%. In the case of `Cc1ccc(SCCNC(=S)Nc2ccc(C)cc2C)cc1` it was 7.45%; in that of `O=C(Nc1ccc(S(=O)(=O)N2CCOCC2)cc1)c1nn(-c2ccc(F)cc2)ccc1=O`, -28.3%; in that of `CC(C)(C)N(NC(=O)OCc1ccccc1)C(=O)c1ccccc1Cl`, -17.5%. Next, `Nc1cc2c(cc1C(=O)c1ccc(Cl)cc1)OCCO2`: -10.2%; `O=S(=O)(c1ccc(NC2CCCCC2)cc1)N1CCOCC1`: -23.7%; `COCCNc1nnc(Cc2ccc(Cl)cc2)c(=O)[nH]1`: 23.2%. `O=C(/C=C/Sc1ccccc1)c1ccccc1`: the “hERG current change (%, negative = inhibition) at 10uM” value turned out to be 12.6%. Turning to `CC(=O)c1ccc(N2Cc3ccccc3/C2=N\C(=O)Nc2ccccc2)cc1`, the “hERG current change (%, negative = inhibition) at 10uM” value is on record as -6.93%.

Turning to `Cc1cccc(C)c1NC(=O)CN(C)C(=O)c1cccc(-n2cccc2)c1`, the “hERG current change (%, negative = inhibition) at 10uM” value turned out to be 2.95%. Regarding `COc1ccc(-n2c(C)nc3cc(C(=O)NCCN4CCOCC4)ccc32)cc1`, the “hERG current change (%, negative = inhibition) at 10uM” value came to 5.01%. Regarding `O=C(COC(=O)CCNS(=O)(=O)c1ccccc1)NNC(=O)c1ccccc1`, the “hERG current change (%, negative = inhibition) at 10uM” value was 19.3%.

In the case of `Cc1nc(SCC(=O)c2c(N)n(C3CC3)c(=O)[nH]c2=O)[nH]c(=O)c1CCO`, the “hERG current change (%, negative = inhibition) at 10uM” value is reported as 17%.

Regarding `CCOC(=O)N1CCC(NC(=O)CS(=O)(=O)Cc2nc(-c3ccc(C)cc3)oc2C)CC1`, the “hERG current change (%, negative = inhibition) at 10uM” value was -41.7%.

In the case of `OC(CCc1ccncc1)c1ccccc1` (stereo not drawn), the “hERG current change (%, negative = inhibition) at 10uM” value was determined as 15.5%. On to `Cc1ccc(C(=O)N/C(=C\c2cccc([N+](=O)[O-])c2)C(=O)NC(Cc2ccccc2)C(=O)O)cc1` (stereo not drawn), for which the “hERG current change (%, negative = inhibition) at 10uM” value was determined as 15.3%. On to `O=C(NCc1ccc2c(c1)OCO2)c1ccc(C2SCC(=O)N2Cc2ccco2)cc1` (stereo not drawn), for which the “hERG current change (%, negative = inhibition) at 10uM” value is -31.9%. For `COc1ccc(OC)c(/C=N/NC(=O)CSc2cc(C)nc3c(OC)cccc23)c1`, the “hERG current change (%, negative = inhibition) at 10uM” value was 8.4%.

Consider `CCNS(=O)(=O)c1ccc(CCC(=O)N2CCC(C)CC2)cc1`, for which the “hERG current change (%, negative = inhibition) at 10uM” value was -1.02%.

Consider `COC(=O)C1=C(C(=O)OC)SC2(S1)C(C(=O)OC)=C(C(=O)OC)SC1=C2c2cc(C)ccc2NC1(C)C`, for which the “hERG current change (%, negative = inhibition) at 10uM” value is 14.3%.

Turning to `Cc1ccc(C(=O)CSc2nnc(-c3c[nH]c4ccccc34)o2)cc1`, the “hERG current change (%, negative = inhibition) at 10uM” value is given as 5.86%. Turning to `Cc1cc(C)cc(N(C(=O)c2cc3ccccc3oc2=O)C2C=CS(=O)(=O)C2)c1` (stereo not drawn), the “hERG current change (%, negative = inhibition) at 10uM” value is listed as -55.4%. Turning to `CN(C)c1c2ccccc2nc2c(F)c(F)c(F)c(F)c12`, the “hERG current change (%, negative = inhibition) at 10uM” value is given as 20.4%. On to `O=C(c1ccc2c(c1)OCO2)N1CCN(S(=O)(=O)c2ccc(Cl)cc2)CC1`, for which the “hERG current change (%, negative = inhibition) at 10uM” value is given as -14.9%.

Regarding `Cc1ccc2[nH]cc(CCNC(=O)c3ccco3)c2c1`, the “hERG current change (%, negative = inhibition) at 10uM” value was found to be 5.43%. Next, `O=C(O)c1ccc(CSc2nc(-c3ccc(Cl)cc3)cc(C(F)(F)F)n2)cc1`: 10.1%; `COc1ccc(OC)c(CNC(=O)C2CCN(S(C)(=O)=O)CC2)c1`: 11.7%. Next, `O=C(c1ccc2nccnc2c1)N1CCN(c2ccccc2)CC1`: 6.91%; `O=c1cc(/C=C/c2ccccc2)oc2ccccc12`: -7.45%. Consider `O=C(CSc1nnc(C2CC2)n1-c1ccccc1)NCCc1ccc(F)cc1`, for which the “hERG current change (%, negative = inhibition) at 10uM” value was -42.5%. As for `COc1ccccc1NC(=O)Cc1noc(CSc2cc(C)c3ccccc3n2)n1`, the “hERG current change (%, negative = inhibition) at 10uM” value is 5.59%. Next, `O=C1CNC(=O)/C1=C/c1ccc(Br)cc1`: 16.7%; `Cc1ccc(Nc2nc(N3CCOCC3)nc(N3CCOCC3)n2)cc1Cl.Cl`: 2.7%. As for `c1ccc(Cn2c(SCc3cn4cccnc4n3)nnc2-c2ccco2)cc1`, the “hERG current change (%, negative = inhibition) at 10uM” value was -36.6%. Take `CCOC(=O)c1c(CN2CCOCC2)n(-c2ccccc2)c2cc(Br)c(OC)cc12`: the “hERG current change (%, negative = inhibition) at 10uM” value is 3.27%. For the molecule `O=C(NCC1CCCO1)C(c1ccc(F)cc1)N(CC1CCCO1)C(=O)c1ccc(-c2ccccc2)[nH]1` (stereo not drawn), the “hERG current change (%, negative = inhibition) at 10uM” value is -43.7%. With `CC1=NN(C(=O)c2ccc(Cn3nc(C)c([N+](=O)[O-])c3C)o2)C(O)(C(F)(F)F)C1` (stereo not drawn), the “hERG current change (%, negative = inhibition) at 10uM” value was -52.8%. `CCN(CC)S(=O)(=O)c1ccc(NC(=O)CCC2CCCCC2)cc1`: the “hERG current change (%, negative = inhibition) at 10uM” value was -0.899%.

For the molecule `CCOC(=O)CSc1nc(-c2ccccn2)ncc1OC`, the “hERG current change (%, negative = inhibition) at 10uM” value is recorded as -0.684%. For `O=C(COC(=O)/C=C/c1ccc(OC(F)F)cc1)Nc1ccc(S(=O)(=O)N2CCCC2)cc1`, the “hERG current change (%, negative = inhibition) at 10uM” value is given as -2.12%. `CCC(=O)c1ccc(OCC(=O)Nc2ccccc2N2CCCCC2)cc1`: the “hERG current change (%, negative = inhibition) at 10uM” value is on record as 10.7%. Consider `CCOc1ccc(NC(=O)CN(C)C(=O)Cc2sc(C)nc2-c2ccc(F)cc2)cc1OCC`, for which the “hERG current change (%, negative = inhibition) at 10uM” value was -21.3%. In the case of `COc1ccc(S(=O)(=O)N(C(=O)c2ccncc2)c2ccc(OC(=O)c3ccncc3)cc2)cc1`, the “hERG current change (%, negative = inhibition) at 10uM” value is -16.9%. Next, `O=C(NC1CC1)c1ccc(S(=O)(=O)NCC2CCCCC2)cc1`: 11.6%; `COc1cccc(Oc2ccc(C(F)(F)F)cc2NC(=O)c2cccc(F)c2)c1`: -4.24%; `Cc1cc(C)c(C)c(S(=O)(=O)N2CCN(C(=S)NCC3CCCO3)CC2)c1C` (stereo not drawn): 12.2%. `O=C(c1ccncc1)N1CCN(C(=O)c2ccncc2)CC1`: the “hERG current change (%, negative = inhibition) at 10uM” value came to 12%. With `Cc1ccc(NC2CCCN(C(=O)c3cn(C)c4ccccc34)C2)cc1C` (stereo not drawn), the “hERG current change (%, negative = inhibition) at 10uM” value was -37.2%. Turning to `O=C(CSCCO)Nc1nccs1`, the “hERG current change (%, negative = inhibition) at 10uM” value was found to be 0.403%. In the case of `CN1C(=O)/C(=C/c2ccc(OCc3ccccc3F)cc2)N(C)C1=S` it was 19.5%.

Regarding `O=c1cc(Cl)[nH]c(=O)n1Cc1ccccc1`, the “hERG current change (%, negative = inhibition) at 10uM” value came to 21.9%. For the molecule `Cc1cccc(NC(=O)NNC(=O)c2sccc2-n2cccc2)c1`, the “hERG current change (%, negative = inhibition) at 10uM” value worked out at 21.6%. Consider `COc1ccccc1CNS(=O)(=O)c1ccc2c(c1)CC(=O)N2C`, for which the “hERG current change (%, negative = inhibition) at 10uM” value was -6.11%. For the molecule `O=C(COc1ncnc2ccccc12)Nc1ccc(Cl)c([N+](=O)[O-])c1`, the “hERG current change (%, negative = inhibition) at 10uM” value is -7.85%. With `Cn1c(=O)c2sccc2n(Cc2cccc(Br)c2)c1=O`, the “hERG current change (%, negative = inhibition) at 10uM” value is listed as -0.501%.

`Cc1cc(NC(=O)COC(=O)CCNS(=O)(=O)c2c(Cl)cccc2Cl)no1`: the “hERG current change (%, negative = inhibition) at 10uM” value is recorded as -6.95%. On to `CC(C)Oc1ccc(CCC(=O)NNC(=S)NCc2ccccc2)cc1`, for which the “hERG current change (%, negative = inhibition) at 10uM” value is given as 4.51%.

Turning to `CC(=O)C(Sc1nnnn1-c1ccccc1)C(C)=O`, the “hERG current change (%, negative = inhibition) at 10uM” value amounted to 18%. For the molecule `COc1cc(Br)cc(CN2CCN(c3ncccn3)CC2)c1O`, the “hERG current change (%, negative = inhibition) at 10uM” value is 9.04%. Consider `CCCCC(=O)Nc1cc(OC)c(NC(=S)NC)cc1OC`, for which the “hERG current change (%, negative = inhibition) at 10uM” value is listed as 48.4%. In the case of `COc1cccc(C2/C(=C(\O)c3ccc(OC)c(OC)c3)C(=O)C(=O)N2c2cc(C)on2)c1` (stereo not drawn) it was 7.85%; in that of `COc1ccccc1CCNC(=O)CCn1nc(C)c2c(C)n(-c3ccccc3)nc2c1=O`, 0.155%; in that of `O=c1ccc(-c2ccc(S(=O)(=O)N3CCN(c4cccc(Cl)c4)CC3)o2)n[nH]1`, 10%. Next, `Cn1c(CO)cnc1SCC(=O)c1ccc(Cl)cc1`: 11.3%; `CC(C)CCNc1cc(=O)n(C)c(=O)n1C`: 4.5%. In the case of `CSC1=NP(=S)(SC)N(C)c2nc3n(c21)CCC3` (stereo not drawn), the “hERG current change (%, negative = inhibition) at 10uM” value was -4.71%. Take `CC(=O)c1ccccc1NC(=O)COC(=O)/C=C/c1cccs1`: the “hERG current change (%, negative = inhibition) at 10uM” value was found to be 11.7%. As to `O=C(NCC1CCCCC1)c1ccc(Cl)c(S(=O)(=O)N2CCOCC2)c1`, the “hERG current change (%, negative = inhibition) at 10uM” value is given as -39.3%. Turning to `O=C(/C(=C/O)N=Nc1ccccc1)c1ccc(Cl)cc1`, the “hERG current change (%, negative = inhibition) at 10uM” value is given as 11.7%.
